# Measurements taken from ChEMBL document CHEMBL4513135, “CO-ADD screening of IQOG CSIS (Spain) compounds”.
# Where “and” joins values, the source holds several entries; their conditions need not be identical. Identical values can stand only once. This is one part of the list. Results with a measured potency or affinity are listed apart.
# Test system: Pseudomonas aeruginosa
# Settings: Concentration 32 ug.mL-1, ASSAY_TEST Inhibition of Bacterial Growth, detection method Absorption (OD600), MEDIA CAMHB, plate type 384well, NBS, CORNING #3640, time 18 hr
structure (smiles),measurement,setting,value
COc1ccc2cc(C=O)c(Cl)nc2c1,Inhibition,,-0.66%
CCOC(=O)c1cc2cc(O)ccc2n1C(=O)OC(C)(C)C,Inhibition,,-5.94%
CCOC(=O)C1=C(C)OC(N)=C(C#N)C1c1ccc([N+](=O)[O-])cc1 (stereo unspecified),Inhibition,,9.5%
COc1ccc(C2c3ccc4ccccc4c3Oc3nc4c(c(N)c32)CCCC4)c(OC)c1 (stereo unspecified),Inhibition,,13.22%
COc1ccc(-c2cc(-c3cc4c(C)cc(C)cc4nc3Cl)cc(=O)[nH]2)cc1,Inhibition,,-4.96%
COc1cccc(C2c3c(ccc4ccccc34)OC(=NBr)C2(Br)C#N)c1 (stereo unspecified),Inhibition,,14.81%
N#CC1(Br)C(=N)Oc2ccc3ccccc3c2C1c1cccc([N+](=O)[O-])c1 (stereo unspecified),Inhibition,,-21.49%
N#CC1=C(N)Oc2c(ccc3ccccc23)C1c1ccc(O)cc1 (stereo unspecified),Inhibition,,17.58%
COc1ccc2c(c1)cc(/C=C/[N+](=O)[O-])n2C,Inhibition,,34.75%
CN(C)c1nc2nc3c(c(N)c2c(-c2ccccc2)c1C#N)CCCC3,Inhibition,,15.18%
O=C(COc1ccc2ccccc2c1)N/N=C/c1c[nH]c2ccccc12,Inhibition,,27.77%
CC1Cc2c(Cl)nc3nc4c(c(N)c3c2NC1=O)CCCC4 (stereo unspecified),Inhibition,,28.48%
CC(=NNC(N)=O)c1c[nH]c2ccccc12,Inhibition,,4.99%
C#CCNc1ncccn1,Inhibition,,20.65%
CCOC(=O)c1cc2cc(OCc3ccccc3)ccc2[nH]1,Inhibition,,35.07%
N#Cc1cc2c(N)c3c(nc2nc1Cl)CCN(Cc1ccccc1)C3,Inhibition,,31.21%
COC1(N)Oc2ccc3ccccc3c2C(c2ccccc2)C1(Br)C#N (stereo unspecified),Inhibition,,-12.17%
CCOC(=O)C1=C(C)OC(N)=C(C#N)C1c1ccccc1OC (stereo unspecified),Inhibition,,21.47%
N#CC1=C(Cl)Oc2c(ccc3ccccc23)C1c1ccccc1 (stereo unspecified),Inhibition,,1.1%
N#Cc1cccnc1Cl,Inhibition,,8.4%
N#CC1(Br)C(=NBr)Oc2ccc3ccccc3c2C1c1ccc([N+](=O)[O-])cc1 (stereo unspecified),Inhibition,,-14.25%
CC1CN(C)c2c(C#N)c(-c3ccccc3)c(C#N)c(=N)n21 (stereo unspecified),Inhibition,,14.18%
C#CCNc1nc(NCC#C)c(C#N)cc1C#N,Inhibition,,8.28%
N#CC1=C(N)Oc2ccc3ccccc3c2C1,Inhibition,,17.02%
N#Cc1c(Cl)nc(NC2CCN(Cc3ccccc3)CC2)c(C#N)c1-c1ccccc1,Inhibition,,-11.42%
N#Cc1cc(C#N)c(N2CCCCC2)nc1Cl,Inhibition,,26.95%
Cn1ccnc1C1c2ccc3cccnc3c2Oc2nc3c(c(N)c21)CCCCC3 (stereo unspecified),Inhibition,,29.99%
CC/C(C)=N/NC(=O)Cc1c[nH]c2ccccc12,Inhibition,,25.13%
CC(=O)C(=Cc1ccccc1)C(=O)O[C@H]1C[C@H](C)CC[C@H]1C(C)C,Inhibition,,23.58%
O=C1OC(c2ccccc2)=NC1=Cc1ccc([N+](=O)[O-])cc1,Inhibition,,22.35%
N#Cc1cccnc1N,Inhibition,,25.87%
O=C(O)c1c[nH]c2ccccc12,Inhibition,,16.88%
COC1=C(C#N)CCC(=O)N1,Inhibition,,19.61%
N#Cc1ccc(Br)cc1N,Inhibition,,17.55%
CCOC(=O)c1c[nH]c2ccc(OCc3ccccc3)cc12,Inhibition,,29.84%
C#CCN(C)Cc1cc2cc(OCc3ccc(OC)c4ncccc34)ccc2n1C,Inhibition,,-1.13%
COC(=O)C1(NC(=O)c2ccccc2)CC1c1ccccc1 (stereo unspecified),Inhibition,,23.63%
NNC(=O)Cc1c[nH]c2ccccc12,Inhibition,,44.75%
COc1ccc(CNNC(=O)c2cc3ccccc3[nH]2)cc1,Inhibition,,18.02%
O=C(N[C@H]1CC[C@@H](Br)[C@@H](Br)C1)C(F)(F)F,Inhibition,,16.3%
COc1ccc(-c2cc(-c3cc4ccc(F)cc4nc3Cl)cc(=O)[nH]2)cc1,Inhibition,,-18.35%
N#Cc1c(N)nc(S)c(C#N)c1-c1ccccc1,Inhibition,,48.99%
C#CCN(C)c1nc(NCC2CCN(Cc3ccccc3)CC2)c(C#N)c(-c2ccccc2)c1C#N,Inhibition,,29.48%
N#CC1=C(N)Oc2c(ccc3ccccc23)C1c1ccccc1 (stereo unspecified),Inhibition,,22.69%
C=CCNCc1cc2cc(OCCCC3CCN(Cc4ccccc4)CC3)ccc2[nH]1.O.O=C(O)C(=O)O.O=C(O)C(=O)O,Inhibition,,-10.32%
Nc1n[nH]c2c1C(c1ccccc1)CC(=O)N2 (stereo unspecified),Inhibition,,9.77%
CCOC(=O)c1c(C)nc2nc3c(c(N)c2c1-c1ccc(Cl)cc1)CCCCC3,Inhibition,,-4.52%
CN1C/C(=C\Cl)n2c1c(C#N)cc(C#N)c2=O,Inhibition,,-43.15%
Nc1c2c(nc3c1C(c1ccc([N+](=O)[O-])cc1)c1c(ccc4ccccc14)O3)CCCC2 (stereo unspecified),Inhibition,,37.11%
CCOC(=O)C1=C(C)Oc2nc3c(c(N)c2C1c1nccn1C)CCC3 (stereo unspecified),Inhibition,,-2.17%
O=C(Cc1ccccc1)N/N=C/c1c[nH]c2ccccc12,Inhibition,,16.24%
O=C(O)c1cc2ccccc2[nH]1 [INDOLE-2-CARBOXYLIC ACID],Inhibition,,32.91%
ClCCC1CCN(Cc2ccccc2)CC1,Inhibition,,35.51%
CC1=NC(=Cc2ccc([N+](=O)[O-])cc2)C(=O)O1,Inhibition,,20.97%
CC(=O)NC(=Cc1ccccc1)C(=O)O,Inhibition,,31.01%
Cc1ccc(S(=O)(=O)N[C@H]2CC[C@H](O)CC2)cc1,Inhibition,,19.59%
N#CC1=C(N)Oc2c(ccc3ccccc23)C1c1ccc(Cl)c(Cl)c1 (stereo unspecified),Inhibition,,1.22%
COc1ccc(C=C2N=C(SC)N(C)C2=O)cc1,Inhibition,,-10.86%
CC1=C(CO)C(c2ccc(C#N)cc2)C(C#N)=C(N)O1 (stereo unspecified),Inhibition,,-3.49%
COc1cc(C2CC2(N)C(=O)O)ccc1O (stereo unspecified),Inhibition,,14.49%
O=C(N/N=C/c1c[nH]c2ccccc12)c1cc2ccccc2[nH]1,Inhibition,,38.1%
N#Cc1cc(C#N)c(N2CCC(Cc3ccccc3)CC2)nc1N,Inhibition,,-7.35%
CC(=O)CC(=O)N1[C@@H]2C[C@H]3CCC2(CS1(=O)=O)C3(C)C,Inhibition,,23.04%
CN(C)c1cccc(C(=O)c2cccc(N(C)C)c2)c1,Inhibition,,22.63%
O=C1SC(SCc2ccccc2)=NC1=Cc1ccccc1,Inhibition,,16.62%
Cc1ccc(CNNC(N)=O)cc1.Cl,Inhibition,,29.44%
NNC(=O)c1c[nH]c2ccc(OCc3ccccc3)cc12,Inhibition,,18.46%
N#Cc1c(N)nc(NCCCCC2CCN(Cc3ccccc3)CC2)c(C#N)c1-c1ccccc1,Inhibition,,35.54%
N#Cc1c(N)nc(Cl)c(C#N)c1-c1ccccc1,Inhibition,,10%
O=C(O)C(=Cc1ccccc1)NC(=O)c1ccccc1,Inhibition,,48.77%
COC(=O)C(=Cc1ccc([N+](=O)[O-])cc1)NC(=O)c1ccccc1,Inhibition,,19.19%
COC(=O)C(C#N)=Cc1ccccc1,Inhibition,,28.23%
Nc1c2c(nc3c1C(c1ccc([N+](=O)[O-])cc1)c1ccc4ccccc4c1O3)CCCC2 (stereo unspecified),Inhibition,,-5.68%
C#CCNc1ncc(C#N)c(N)n1,Inhibition,,21.34%
Cn1ccnc1C1c2ccc3cccnc3c2Oc2nc3c(c(N)c21)CCC3 (stereo unspecified),Inhibition,,-13.87%
CN(C)c1nc(N)c(C#N)cc1C#N.Cl,Inhibition,32 ug/mL,7.25% and -1.22%
COc1ccc(/C=C2/N=C(c3ccccc3)OC2=O)cc1OC,Inhibition,,-24.25%
COc1nc(NC(C)=O)c(C#N)c(-c2ccccc2)c1C#N,Inhibition,,33.32%
COc1ccc(C2C(C#N)=C(N)Oc3c2ccc2ccccc32)c(OC)c1 (stereo unspecified),Inhibition,,24.98%
C#CCNc1nc(NC2CCN(Cc3ccccc3)CC2)c(C#N)cc1C#N.Cl,Inhibition,,-3.29%
CC(C)NNC(=O)Cc1c[nH]c2ccccc12,Inhibition,,53.17%
O=C(Cc1c[nH]c2ccccc12)NNCc1ccccc1,Inhibition,,23.11%
COc1cc(C2c3c(nc4c(c3N)CCCC4)Oc3ccc4ccccc4c32)cc(OC)c1OC (stereo unspecified),Inhibition,,45.09%
C#CCNc1nc(NCCCCC2CCN(Cc3ccccc3)CC2)c(C#N)cc1C#N,Inhibition,,-5.56%
c1ccc(-c2nc3c4cnn(-c5ccccc5)c4ncn3n2)cc1,Inhibition,,22.37%
Cl.NNN1CCc2ccccc21,Inhibition,,34.79%
CC(C)(C)OC(=O)Nc1ccccn1,Inhibition,,18.78%
C#CCN(C)Cc1cc2cc(OCc3ccccc3)ccc2n1C.O=C(O)C(=O)O,Inhibition,,12.92%
COc1nc2ccccc2cc1C=O,Inhibition,,-2.75%
C#CCN(C)c1nc(N(C)CC#C)c(C#N)cc1C#N,Inhibition,,12.11%
COc1ccc2nc(Cl)c(C=O)cc2c1,Inhibition,32 ug/mL,-3.35% and -1.97%
COC(=O)C(=Cc1ccc(OC)cc1)NC(=O)c1ccccc1,Inhibition,,29.17%
COC(=O)/C(=C/c1ccc(O)cc1)NC(=O)c1ccccc1,Inhibition,,11.52%
Cc1cc(Br)cc(C)c1NC=C(C#N)C#N,Inhibition,,4.53%
CCOc1nc(N)c(C#N)c(-c2ccccc2)c1C#N,Inhibition,,-7.53%
Cc1nc(Nc2ccccc2)c2cnn(-c3ccccc3)c2n1,Inhibition,,28.22%
CNC(=O)c1c(Cl)c2cc(OCc3ccccc3)ccc2n1C,Inhibition,,34.06%
CCOC(=O)C1=C(C)NC(N)=C(C#N)C1c1ccc([N+](=O)[O-])cc1 (stereo unspecified),Inhibition,,8.94%
CC1(C)OS(=O)(=O)C2=C1NC(N)=C(C#N)C2c1ccccc1 (stereo unspecified),Inhibition,,32.54%
C#CCN(C)c1nc(NC2CCN(Cc3ccccc3)CC2)c(C#N)c(-c2ccccc2)c1C#N,Inhibition,,4.69%
COc1cccc(C2C(C#N)=C(N)Oc3ccc4ccccc4c32)c1 (stereo unspecified),Inhibition,,13.23%
CC#CCN.Cl,Inhibition,,5.95%
C#CCN(Cc1ccccc1)c1nc(N)c(C#N)c(-c2ccccc2)c1C#N,Inhibition,,4.27%
N#CC1(Br)C(=NBr)Oc2ccc3ccccc3c2C1c1ccccc1[N+](=O)[O-] (stereo unspecified),Inhibition,,4.43%
CCCCCCC(C)NNC(=O)c1cc2ccccc2[nH]1 (stereo unspecified),Inhibition,,-20.27%
N#Cc1c(N)nc2[nH]nc(N)c2c1-c1ccccc1,Inhibition,,14.3%
